The whole screen tested about 360,000 compounds, of which about 6,000 (1.7%) were called active. This list was built around the results that the source calls inconclusive (neither active nor inactive); the mix of calls is not that of the screen. The call rests on the fitted dose curve; in most records, active means well fitted cell-killing curve with a large enough effect; inconclusive means small, poorly fitted or top-dose-only effect, or effect the other way; inactive means flat fitted curve, though single readings scatter. No potency is given beside an inconclusive call; the fits are too rough.
Assay: qHTS for induction of synthetic lethality in tumor cells producing 2HG: qHTS for the HT-1080-NT fibrosarcoma cell line;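 further: NT is the 2HG producing partner of a matched IDH1 knockdown line; nearly all actives have a fitted effect of over 55% in size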;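 on activity, negative = less viability: 0% = DMSO-treated cells and -100% = media-only wells without cells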
Conditions: HT-1080-NT fibrosarcoma viability, CellTiter-Glo ATP luminescence, 48 h; activity, negative = less viability: at 46.1 µM (top of the series) unless noted
Procedure, shortened: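 Luminescent CellTiter-Glo readout after 48 hours of compound exposure at 37 degrees C defined viability of HT-1080-NT cells. Activity was normalized to DMSO wells and cell-free media wells; concentration-response curves were fitted and assigned curve classes.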
With `COc1ccc(N(C(=O)CCl)C(C(=O)NC2CCCCC2)c2cccnc2)cc1` (configuration not stated) the Potency was active: 7.31 µM. For `C=CCn1c(=O)c2ccccc2n2c(SC(C)C(N)=O)nnc12` (configuration not stated), the “activity, negative = less viability” value was inactive: 11.8%. For `COc1cc2ccccc2ccc1=NO`, the “activity, negative = less viability” value was inactive: -9.83%. In the case of `CC(C)(C)NC(=O)C(c1ccc(-c2ccccc2)cc1)n1c(=O)c(-c2ccco2)nc2ccccc21` (configuration not stated), the Potency is reported as inconclusive [cytotoxic, single point]. For `COC(=O)c1sc(=S)sc1C(=O)OC`, the Potency was inconclusive [cytotoxic, single point]. In the case of `CCCCOc1ccc(S(=O)(=O)NC(=O)C2(C)CCN2C(=O)CCc2ccccc2)cc1` (configuration not stated), the Potency is reported as inconclusive [rising, single point]. In the case of `Cc1cccc(NNC(=S)Nc2c(C)cccc2C)c1`, the Potency is reported as inconclusive [cytotoxic, partial curve, poor fit]. With `O=C(NNc1ncnc2ccccc12)c1cccc(Cl)c1` the “activity, negative = less viability” value was inactive: 17.8%. In the case of `O=C1C(Cl)=C(NCCN2CCOCC2)C(=O)c2ccccc21`, the Potency is reported as inconclusive [cytotoxic, single point]. For `COc1cccc(CNc2nc(NCC3CC3)nc3ccsc23)c1OC`, the Potency was active: 23.1 µM. In the case of `COc1ccc(Cn2c(C(C)C)nc3sc4ccccc4c(=O)c3c2=O)cc1`, the “activity, negative = less viability” value is reported as inactive: 3.25%. With `C/C(=N\NC(=O)c1ccc(Cl)cc1)c1ccccn1` the activity, negative = less viability was inconclusive: -8.38% [cytotoxic]. In the case of `Cc1ccccc1NC(=O)OCc1cccnc1Sc1ccc(Cl)cc1`, the “activity, negative = less viability” value is reported as inactive: -0.927%. For `c1ccc(SSc2ccccn2)nc1`, the Potency was inconclusive [cytotoxic, single point]. With `COc1ccc(CS(=O)(=O)/C(Cl)=C(/Cl)C(=O)Nc2ccc(OC)nc2)cc1` the Potency was active: 23.1 µM. With `CC1(C(=O)Nc2cccc(Oc3ccccc3)c2)Cc2c(-c3ccc4c(c3)OCO4)ccnc2O1` (configuration not stated) the Potency was inconclusive [cytotoxic, partial curve]. In the case of `CCc1nc2c(OC)cccn2c1N(C)C(=O)c1ccccc1F`, the Potency is reported as inconclusive [rising, single point]. With `COc1cccc(Oc2ccc(C(F)(F)F)cc2NC(=O)CN2C(=O)NC3(CCCC3)C2=O)c1` the Potency was inconclusive [cytotoxic, single point]. In the case of `CCn1c(=O)cc(SCC(=O)NCCCN2CCN(c3ccc(F)cc3)CC2)c2ccccc21`, the Potency is reported as inconclusive [cytotoxic, full curve]. For `CCN1CCN(S(=O)(=O)c2ccc(F)c(C(=O)Nc3c(F)cc(F)cc3Br)c2)CC1`, the “activity, negative = less viability” value was inactive: 7.02%. For `CO[C@@H]1CN(C)C(=O)c2cc(NC(=O)Nc3ccc(Cl)cc3)ccc2OC[C@H](C)NC[C@H]1C`, the Potency was inconclusive [cytotoxic, single point]. In the case of `COc1cccc(CN2CCC(N(CCc3ccccc3)Cc3ccccc3)CC2)c1OC`, the Potency is reported as inconclusive [cytotoxic, single point]. For `COc1cccc(CNc2nc(NC(C)C)nc3ccsc23)c1OC`, the Potency was active: 14.6 µM. With `Cc1ccc(S(=O)(=O)N2c3ccccc3CC2C)cc1` (configuration not stated) the Potency was inconclusive [cytotoxic, single point]. In the case of `Cc1ccc(O)c(C(=O)CC(=O)c2ccc(Cl)cc2)c1`, the Potency is reported as inconclusive [cytotoxic, single point]. In the case of `COc1cc(C(=O)Nc2ccc(C)cc2)c2ccccc2n1`, the Potency is reported as inconclusive [cytotoxic, full curve]. In the case of `OC(CON=C1c2ccccc2-c2ccccc21)CN1CCNCC1` (configuration not stated), the Potency is reported as active: 20.6 µM. For `O=Cc1ccccc1OCc1nnsc1Cl`, the Potency was inconclusive [cytotoxic, single point]. For `Cc1cc(Cl)ccc1NC(=S)NCc1cccs1`, the Potency was active: 18.4 µM. In the case of `Fc1ccc(F)c(CNc2ncnc3cc(Cl)ccc23)c1`, the Potency is reported as inconclusive [cytotoxic, partial curve]. For `Cn1cc(C(=O)N/N=C/c2ccc3c(c2)OCO3)c2ccccc21`, the Potency was active: 20.6 µM. For `O=C(NC12CC3CC(CC(C3)C1)C2)c1ccccc1`, the “activity, negative = less viability” value was inactive: 17.6%. In the case of `CC(C)[C@H](NC(=O)c1ccc([N+](=O)[O-])cc1Cl)C(=O)N1CCN(C/C=C/c2ccccc2)CC1`, the Potency is reported as inconclusive [cytotoxic, partial curve]. In the case of `CCN(C(=O)CSc1nc2nc(C)cc(C)n2n1)c1cccc(C)c1`, the “activity, negative = less viability” value is reported as inactive: 2.05%. In the case of `CCOC(=O)c1c(-c2ccc(-c3ccccc3)cc2)csc1NC(=O)CNCCN(C)C`, the Potency is reported as active: 9.2 µM. With `COc1ccc(NC(=O)COC(=O)/C=C/C(=O)OCC(=O)Nc2ccc(OC)c(Cl)c2)cc1Cl` the Potency was inconclusive [cytotoxic, single point]. For `O=C(NNC(=O)C1CCN(Cc2ccccc2)CC1)c1cccc(Cl)c1`, the “activity, negative = less viability” value was inactive: -2.35%. With `Cc1cc(N=Nc2ccccc2)c(NCC(O)C(O)C(O)CO)cc1C` (configuration not stated) the “activity, negative = less viability” value was inactive: -29%. With `CCN1CCN(C(C(=O)NC2CCCCC2)C2CC2)CC1` (configuration not stated) the Potency was inconclusive [rising, single point]. In the case of `CCOC(=O)c1c(C)n(C)c2ccc(OC(=O)c3ccoc3)cc12`, the Potency is reported as inconclusive [rising, partial curve]. For `Cc1cc(C)cc(C(O)c2ncc(-c3ccccc3Cl)[nH]2)c1` (configuration not stated), the activity, negative = less viability was inconclusive: -80.1%. With `CC1Sc2ccc(C(=O)Nc3ccc(S(=O)(=O)N(C)C)cc3)cc2NC1=O` (configuration not stated) the Potency was inconclusive [cytotoxic, single point]. With `COc1ccc(CCC(C)NC2CCCCCCC2)cc1` (configuration not stated) the Potency was inconclusive [cytotoxic, partial curve]. For `Cc1ccc(N2CC(C(=O)Nc3ncc([N+](=O)[O-])s3)CC2=O)cc1` (configuration not stated), the Potency was inconclusive [cytotoxic, single point]. In the case of `NS(=O)(=O)c1ccc(NC(=O)CSc2nnc3c(n2)[nH]c2ccccc23)cc1`, the “activity, negative = less viability” value is reported as inactive: -10.4%. With `COc1ccc(C(=O)CCNc2ccc3c(c2)OCCO3)cc1` the “activity, negative = less viability” value was inactive: 4.31%. With `O=C(O)C1=C(C(=O)O)C2C=CC1C2` the “activity, negative = less viability” value was inactive: 4.33%. With `Cc1ccc(-c2nc3ccsc3c(=O)[nH]2)cc1` the Potency was inconclusive [cytotoxic, partial curve]. For `Cc1cc([N+](=O)[O-])ccc1NCc1ccc2ccccc2c1`, the “activity, negative = less viability” value was inactive: -24.5%. For `Oc1ccccc1-c1n[nH]c(=S)n1Cc1ccco1`, the Potency was inconclusive [cytotoxic, single point]. In the case of `OC[C@@H]1CN(Cc2ccc(-c3ccccc3)cc2)C[C@H](n2cnc3c(NC4CCC4)ncnc32)O1`, the Potency is reported as active: 13 µM. For `NC(=O)c1cc([N+](=O)[O-])ccc1NCc1cccc2ccccc12`, the “activity, negative = less viability” value was inactive: -14.9%. With `COc1ccc([C@H]2CC(=O)C=C(c3cc(C)ccc3OC)C2)cc1` the Potency was inconclusive [cytotoxic, single point]. With `Cc1ccc(C(=O)Nc2ccc(-c3csc(C)n3)cc2)cc1` the Potency was inconclusive [cytotoxic, single point]. With `CCOc1cc(/C=C2\C(=O)ON=C2c2ccccc2)cc(Br)c1O` the Potency was inconclusive [cytotoxic, partial curve]. In the case of `O=S(=O)(Cc1ccccc1)N(O)c1ccccc1`, the “activity, negative = less viability” value is reported as inactive: -18.6%. For `CCOc1ccc(N2C(=O)CC(Cc3ccc(Br)cc3)C2=O)cc1` (configuration not stated), the “activity, negative = less viability” value was inactive: -5.05%. With `O=C(NC(=S)NNC(=O)c1cnccn1)c1ccc(F)cc1` the Potency was inconclusive [cytotoxic, partial curve]. With `Cc1[nH]nc(-c2ccc(OCc3cnn(-c4ccccc4)c3)c(C)c2O)c1Oc1ccccc1` the Potency was active: 20.6 µM. For `O=C(NN=C1CCCC1)c1[nH]c2ccc(Br)cc2c1-c1ccccc1`, the Potency was active: 8.2 µM. With `O=C(c1cc(-c2cccc(Cl)c2)on1)N1CCOCC1` the “activity, negative = less viability” value was inactive: 16.2%. With `COc1ccc(NC(=O)CCC(=O)Nc2nnc(CC(C)C)s2)cc1Cl` the “activity, negative = less viability” value was inactive: 13.1%. In the case of `CCOC(=O)[C@]12CCC=C1N(Cc1ccc(Cl)cc1Cl)C(=O)[C@H](CC(=O)NCCC(C)C)C2`, the Potency is reported as inconclusive [cytotoxic, single point]. For `COc1ccc(Cl)cc1C(=O)NNC(=O)c1cccs1`, the “activity, negative = less viability” value was inactive: 5.68%. In the case of `COc1cccc(C(=O)Nc2sc3c(c2C#N)CCN(C(C)=O)C3)c1`, the Potency is reported as active: 2.59 µM. With `O=C(CCCCn1c(=O)c2ccccc2n(Cc2ccc(F)cc2Cl)c1=O)NCc1ccco1` the Potency was inconclusive [cytotoxic, partial curve]. For `O=C(NCc1ccco1)c1cc(-c2ccc3c(c2)OCO3)on1`, the Potency was active: 2.24 µM. In the case of `COc1ccc(-c2nn3c(-c4cccc(C)c4)nnc3s2)cc1OC`, the “activity, negative = less viability” value is reported as inactive: -15.4%. With `O=C(NC1CCCC1)C(c1ccco1)N(Cc1ccccc1)C(=O)c1csnn1` (configuration not stated) the “activity, negative = less viability” value was inactive: 1.62%. For `C/C(=N\Nc1nc2c(s1)CCCC2)c1ccccc1`, the Potency was inconclusive [cytotoxic, partial curve]. For `CN(C)N1C(=O)c2c(Cl)c(Cl)c(Cl)c(Cl)c2C1=O`, the “activity, negative = less viability” value was inactive: 1.42%. With `COCCCNc1ccn2nc(-c3ccc(Cl)cc3)cc2n1` the “activity, negative = less viability” value was inactive: 22.2%. In the case of `CC(C)C[C@H]1CNC(=O)C(=O)N1C[C@H]1CCCN1C[C@H](Cc1ccc(O)cc1)N1C[C@H](CC(C)C)N(CC2CCCCCC2)C(=O)C1=O`, the Potency is reported as inconclusive [cytotoxic, single point]. In the case of `COc1ccccc1-c1nc(SCC(=O)N2CCOCC2)n[nH]1`, the “activity, negative = less viability” value is reported as inactive: -0.759%. With `CC1CCCN(C(=O)C(=O)c2cn(CC(=O)N3CCCCCC3)c3ccccc23)C1` (configuration not stated) the “activity, negative = less viability” value was inactive: -3.51%. In the case of `CCOC(=O)c1c(-c2ccc(C)o2)csc1NC(=O)CN1CCN(CC)CC1`, the Potency is reported as inconclusive [cytotoxic, single point]. In the case of `CCOC(=O)c1ccc(-c2c(-c3ccccc3OC)sc3cc4c(cc23)OCO4)cc1F`, the Potency is reported as inconclusive [rising, single point].

Reference: PubChem BioAssay AID686970 (National Center for Advancing Translational Sciences (NCATS), 2013)
Potency means the concentration at half of the fitted maximal effect; tags describe the fitted curve by direction and shape.
